Assay results published in PubChem BioAssay AID686978 (National Center for Advancing Translational Sciences (NCATS), 2013).
Screen size: about 420,000 compounds; about 64,000 (15%) were called active. The shares of active, inactive and inconclusive entries below differ from those in the screen. The call rests on the fitted dose curve; in most records, active means well fitted inhibition curve with a large enough effect; inconclusive means small, poorly fitted or top-dose-only effect; inactive means flat fitted curve, though single readings scatter. No potency is given beside an inconclusive call; the fits are too rough.

test: qHTS for Inhibitors of human tyrosyl-DNA phosphodiesterase 1 (TDP1): qHTS in cells in absence of CPT; conditions: DT40 Tdp1-/- hTDP1 cells, no CPT, ATP luminescence, 48 h; activity change, negative = growth inhibition: at 46.2 µM (top of the series) unless noted; further: nearly all actives have a fitted effect of over 55% in size
How it was run: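 Cells were dispensed at 400 per well, compounds added by pin tool, plates incubated ≥48 hr at 37 °C, then CellTiter-Glo added for 30 min at room temperature before luminescence reading. Line: DT40 Tdp1-/- complemented with hTDP1; camptothecin omitted.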
On the % scale 0 is the no-effect control and ±100 the full control effect; potency means the concentration at half of the fitted maximal effect; tags describe the fitted curve by direction and shape.

Row | Structure (SMILES) | Potency | activity change, negative = growth inhibition
1 | CCNC(=S)NNC(=O)CSc1nc2ccccc2n1C | inactive | –
2 | CCOc1ccc(-c2c(C(=O)N/N=C/c3cccc(Br)c3)nnn2-c2nonc2N)cc1 | inconclusive [inhibitor, single point] | –
3 | Cn1c(SCCN2CCCC2)nnc1C1CCN(S(=O)(=O)c2cccc(F)c2)CC1 | inactive | –
4 | COc1cc(C(=O)COC(=O)c2ccc3c(c2)OCCO3)cc(OC)c1OC | inconclusive [inhibitor, single point] | –
5 | CN1C(=O)[C@H]2[C@@H](/C=C/c3ccccc3)N3C(=O)CN(Cc4ccccc4)C(=O)[C@@]3(C)[C@H]2C1=O | inactive | –
6 | O=C(Nc1nccs1)C1CC(=O)N(c2ccccc2)C1 (stereo not drawn) | inactive | –
7 | COc1cc(Cl)ccc1OCc1cc(C(=O)N(C)CCc2c(C)n[nH]c2C)no1 | inconclusive [inhibitor, partial curve, poor fit] | –
8 | COc1ccccc1CCCNC(=O)C1CCC(=O)N(CCc2cccc(F)c2)C1 (stereo not drawn) | active: 18.4 µM | –
9 | O=C(Cn1c(-c2cccs2)cc2ccccc21)N1CCN(c2ccccc2F)CC1 | inconclusive [inhibitor, single point] | –
10 | Cc1cccc(OCCn2c(CCNC(=O)C3CCCCC3)nc3ccccc32)c1 | inconclusive [inhibitor, single point] | –
11 | Cc1nc(C)c(CC(=O)N2CCOc3ccc(CN4CCOCC4)cc3C2)s1 | inconclusive [inhibitor, single point] | –
12 | CCN(C(=O)CSc1nnc(-c2cc(OC)c(OC)c(OC)c2)o1)c1ccccc1 | active: 5.8 µM | –
13 | N#Cc1c(-c2ccc(C(F)(F)F)cc2)cc(-c2ccccc2)[nH]c1=S | inconclusive [inhibitor, single point] | –
14 | CCOc1cc(C(=O)Nc2cccc(OCC(=O)N3CCOCC3)c2)cc(OCC)c1OCC | inactive | –
15 | CCCn1c(N)c(C(=O)COC(=O)CCNS(=O)(=O)c2ccccc2F)c(=O)[nH]c1=O | inconclusive [inhibitor, partial curve, poor fit] | –
16 | Clc1ccc(CCNc2nc3ccccc3c3nc(-c4ccccc4)nn23)cc1 | active: 11.6 µM | –
17 | COc1cccc(/C=C2\Oc3cc(OCC(=O)N4CCCCC4)ccc3C2=O)c1OC | inconclusive [inhibitor, single point] | –
18 | O=C(CNC(=O)c1ccco1)N/N=C/c1ccc(O)cc1O | inconclusive [inhibitor, single point] | –
19 | Fc1ccc(-c2nc3c(Cl)cc(C(F)(F)F)cn3c2Cc2ccsc2)cc1 | inactive | –
20 | CC1(C(=O)NS(=O)(=O)c2ccccc2OC(F)(F)F)CCN1C(=O)c1ccccc1 (stereo not drawn) | inactive | –
21 | CCC1CCCCN1C1Sc2ccc(C(=O)OC)cc2NC1=O (stereo not drawn) | – | inconclusive: -32.7% [inhibitor]
22 | C/C(NCCc1ccc(O)cc1)=C1/CCOC1=O | inactive | –
23 | c1ccc(CN2CCC(Nc3nc(-c4ccccc4)nc4ccccc34)CC2)cc1 | inconclusive [inhibitor, full curve, poor fit] | –

Row | Structure (SMILES) | Potency | activity change, negative = growth inhibition
24 | CCN(CC(=O)Nc1ccc2c(c1)OCCO2)CC(=O)Nc1ccc(C)c([N+](=O)[O-])c1 | inconclusive [inhibitor, partial curve] | –
25 | C[C@@H]1CCCCO[C@H](CN(C)C(=O)Nc2cccc3ccccc23)[C@@H](C)CN([C@H](C)CO)C(=O)c2cc(NC(=O)c3ccccc3)ccc2O1 | active: 3.66 µM | –
26 | COc1cccc2sc(N3CCN(c4nc5ccccc5s4)CC3)nc12 | inconclusive [inhibitor, partial curve] | –
27 | CCOc1cccc(CC(=O)NCc2ccc3c(c2)CCN3C(=O)c2ccc(F)cc2)c1OCC | inconclusive [inhibitor, single point] | –
28 | CCN(CC)C(=O)c1cccc(-c2csc(C(NC(C)=O)c3ccc(F)c(F)c3)n2)c1 (stereo not drawn) | inconclusive [inhibitor, single point] | –
29 | CCOc1ccc(NC(=O)Cn2cc(C(=O)c3cccs3)c3ccccc32)cc1 | inconclusive [inhibitor, single point] | –
30 | COc1ccccc1NC(=O)c1ccc(NC(=O)c2ccc(=O)[nH]c2)cc1 | inconclusive [inhibitor, single point] | –
31 | O=C(NN=Cc1ccc2c(c1)OCO2)c1ccncc1 | inactive | –
32 | CC(=O)Oc1ccc(-c2nc(-c3cccnc3)no2)cc1 | inconclusive [inhibitor, full curve, poor fit] | –
33 | CCN=C1NN=C(c2c[nH]c3ccccc23)CS1 | inactive | –
34 | CCOc1cc(CNC(=O)c2ccccc2NC(=O)c2nsc3ccccc23)ccc1OC | active: 18.4 µM | –
35 | Cc1ccc(C(=O)N(Cc2ccco2)Cc2ccco2)cc1 | inconclusive [inhibitor, partial curve] | –
36 | CC1(C)S[C@@H]2[C@H](NC(=O)C(C(=O)O)c3ccccc3)C(=O)N2[C@H]1C(=O)O (stereo partly drawn) | inconclusive [inhibitor, single point] | –
37 | CCOC(=O)c1sc(NC(=O)c2ccc(C)s2)cc1C | inconclusive [inhibitor, single point] | –
38 | CSc1nnc(-c2cc3c(s2)-c2ccccc2CC3)o1 | inconclusive [inhibitor, partial curve] | –
39 | CCc1nc2ccc(C(=O)NCCC(C)C)cn2c1N(CCN(C)C)CC1CC1 | inactive | –
40 | COc1ccc(CCCNC(=O)C2CCC(=O)N(Cc3ccc(Cl)cc3)C2)cc1 (stereo not drawn) | inconclusive [inhibitor, single point] | –
41 | O=C(CCC1CCCN(Cc2ccncc2)C1)NCc1ccc(F)c(F)c1 (stereo not drawn) | inactive | –
42 | O=c1[nH]c2ccccc2cc1CN(Cc1ccco1)S(=O)(=O)c1ccc(F)cc1 | inconclusive [inhibitor, single point] | –
43 | CCC(=O)N1CCc2cc(Br)cc(S(=O)(=O)N3CCCC(C(=O)Nc4cccc(C)c4C)C3)c21 (stereo not drawn) | inconclusive [inhibitor, partial curve] | –
44 | COc1cccc(/C=N/n2cnc3ccccc32)c1OC | inconclusive [inhibitor, single point] | –
45 | Cc1ccc(C(=O)c2cn[nH]c2-c2cc(Cl)ccc2O)cc1 | – | inconclusive: -30% [inhibitor]
46 | COc1ccccc1CNC(=O)CSc1nc2nc(C)c(Cc3ccccc3Cl)c(C)n2n1 | inconclusive [inhibitor, single point] | –

Row | Structure (SMILES) | Potency | activity change, negative = growth inhibition
47 | CC(C)CNC(=O)c1ccccc1NC(=O)c1ccc(CSc2ccccc2)cc1 | inconclusive [inhibitor, single point] | –
48 | CCC(NC(=O)c1ccncc1)c1ccccc1 (stereo not drawn) | – | inconclusive: -30.5% [inhibitor]
49 | NNc1ncnc2scc(-c3ccc(Cl)cc3)c12 | inconclusive [inhibitor, single point] | –
50 | Cc1ccc(Cl)cc1NC(=O)C1CCCN(S(=O)(=O)c2cccc3cccnc23)C1 (stereo not drawn) | inconclusive [inhibitor, single point] | –
51 | O=C(/C=C/c1cccc(O)c1)c1cccnc1 | active: 23.1 µM | –
52 | S=c1nn[nH]n1C12CC3CC(CC(C3)C1)C2 | inactive | –
53 | CCCCCCCCN1C(=O)[C@H](CC(=O)NCc2cccc(C(F)(F)F)c2)C[C@@]2(C(=O)OC)CCCCC=C12 | inconclusive [inhibitor, single point] | –
54 | CCC1CC(=O)CCN1S(=O)(=O)c1ccc(C)cc1 (stereo not drawn) | inactive | –
55 | O=C(CC(O)c1ccncc1)c1ccccc1O (stereo not drawn) | inconclusive [inhibitor, partial curve] | –
56 | Cc1cccc(N(C)S(=O)(=O)c2c(C)[nH]c(C)c2C(=O)N2CCCC2)c1 | inconclusive [inhibitor, single point] | –
57 | O=C(Nc1ccccc1O)c1ccc([N+](=O)[O-])cc1 | inconclusive [inhibitor, full curve, poor fit] | –
58 | CCOc1ccc(N(CC(=O)NC2CC2)S(=O)(=O)c2ccc(C)cc2)cc1 | inactive | –
59 | Cc1noc(C)c1S(=O)(=O)N1CCCC(C(=O)Nc2ccc(Cl)cn2)C1 (stereo not drawn) | inconclusive [inhibitor, single point] | –
60 | CC(C)N(C(=O)Cn1cc(S(=O)(=O)CC(=O)NCCc2ccccc2)c2ccccc21)C(C)C | inconclusive [inhibitor, single point] | –
61 | CC1(C(=O)NCCC#N)CCN1C(=O)Cc1ccc(-c2ccccc2)cc1 (stereo not drawn) | inconclusive [inhibitor, single point] | –
62 | COCCn1c(=NC(=O)c2ccc(S(=O)(=O)N3CCOCC3)cc2)sc2cc(S(N)(=O)=O)ccc21 | inconclusive [inhibitor, partial curve] | –
63 | COc1cccc(-c2ncc3ccccc3c2COC(=O)N2CCOCC2)c1 | inconclusive [inhibitor, partial curve, poor fit] | –
64 | CS(=O)(=O)N(CC(=O)Nc1ccccc1C(=O)NCc1ccco1)c1ccc2c(c1)OCCO2 | inconclusive [inhibitor, partial curve] | –
65 | Cc1cc(C(=O)OCC(=O)N2CC(=O)Nc3ccccc32)no1 | inactive | –
66 | Cc1sc2nc(CSc3ccccc3)nc(N3CCN(C)CC3)c2c1C | active: 16.4 µM | –
67 | CCC(=O)N1CCc2cc(S(=O)(=O)CCC(=O)Nc3cccc(F)c3)ccc21 | inconclusive [inhibitor, partial curve] | –
68 | CCOc1ccc(CCN2C(=O)C(=O)N([C@@H](Cc3ccc(O)cc3)CN3CCC[C@H]3CN3C(=O)C(=O)NC[C@@H]3Cc3ccccc3)C[C@@H]2Cc2ccc(O)cc2)cc1 | inconclusive [inhibitor, single point] | –
